Assay results taken from the BET-seq Pho4 binding data (Le et al. 2018).
The list shows a part of the results. These are noisy estimates, calculated here from bound and input reads.

Target: T1, Pho4 (S. cerevisiae) (UniProt P07270)
T1 sequence: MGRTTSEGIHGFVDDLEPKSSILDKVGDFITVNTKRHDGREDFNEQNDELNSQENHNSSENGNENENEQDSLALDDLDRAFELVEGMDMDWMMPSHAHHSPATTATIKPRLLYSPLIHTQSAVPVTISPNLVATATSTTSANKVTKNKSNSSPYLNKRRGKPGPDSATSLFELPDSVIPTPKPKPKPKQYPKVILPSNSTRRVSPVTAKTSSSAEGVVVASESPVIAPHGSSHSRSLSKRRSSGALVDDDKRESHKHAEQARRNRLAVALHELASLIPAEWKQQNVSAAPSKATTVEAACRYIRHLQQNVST
Assay: relative binding free energy (BET-seq); higher = weaker binding
Settings: reference: library average

| Sequence | relative binding free energy [kcal/mol] |
| --- | --- |
| TTCGTCACGTGAAGGT | 0.38 |
| TATCTCACGTGCTGGG | 0.07 |
| AGTGTCACGTGGAGAT | 0.13 |
| ATGGGCACGTGAAGCT | 0.14 |
| TGTGTCACGTGTTGCT | 0.13 |
| AGTTACACGTGCAGGT | 0.14 |
| TAATGCACGTGGTTGC | -0.07 |
| TAGGCCACGTGTTGTT | -0.19 |
| ATTTTCACGTGTTATA | 0.25 |
| TGGCTCACGTGTTTTG | 0.28 |
| CTTCTCACGTGTTTAT | 0.34 |
| TTGCGCACGTGGGTTG | -0.22 |
| GGATTCACGTGTACTT | 0.17 |
| AGATGCACGTGAGGCT | 0.13 |
| CGTGGCACGTGTTGTT | -0.02 |
| GGATTCACGTGGGAGC | 0.37 |
| GTTGGCACGTGTAGCG | -0.01 |
| GGAGTCACGTGTTACG | 0.1 |
| ATTAGCACGTGGTGGT | -0.06 |
| CTACGCACGTGTGGGT | -0.15 |
| AGATGCACGTGGTGGC | -0.08 |

| Sequence | relative binding free energy [kcal/mol] |
| --- | --- |
| ATGGACACGTGGGGGG | -0.08 |
| GGGTACACGTGCTTGT | 0.06 |
| TCCTTCACGTGGGTTA | 0.19 |
| GTAATCACGTGAAAGG | 0.26 |
| TATATCACGTGATGCG | 0.26 |
| AAGAGCACGTGGTGAG | -0.11 |
| TTTTGCACGTGTGACG | 0.1 |
| AGAGACACGTGTGGGA | 0.04 |
| GTGGTCACGTGAGGAG | 0.33 |
| TATAACACGTGAAGGG | 0.35 |
| TGGTGCACGTGTGTCA | 0.02 |
| TTTGACACGTGAAATA | 0.23 |
| TGTAACACGTGACGGT | 0.03 |
| TTCTGCACGTGAGTTG | 0.29 |
| AATTGCACGTGTCTTA | 0.04 |
| ATTTTCACGTGCATGT | 0.25 |
| TTCGTCACGTGTCGGG | 0.05 |
| TTATACACGTGGGTGC | -0.11 |
| TATTTCACGTGGTATG | 0.29 |
| AGTTTCACGTGCAGGA | 0.16 |
| TGAATCACGTGGTGGT | 0.24 |

| Sequence | relative binding free energy [kcal/mol] |
| --- | --- |
| TTGTTCACGTGCACGT | 0.31 |
| CATGGCACGTGTTTGT | -0.09 |
| AGTTACACGTGTTAAT | 0.03 |
| GTGTTCACGTGTACGG | 0.26 |
| TCTGCCACGTGTAAGT | 0.23 |
| TGGTTCACGTGTGATG | 0.33 |
| TGGCGCACGTGCGGAG | -0.11 |
| TATGGCACGTGAGGCG | 0.1 |
| GAAGTCACGTGTGAGG | 0.29 |
| CGTCACACGTGGGGGC | 0.04 |
| ATTAACACGTGTAAGT | 0 |
| TGAGACACGTGGTATT | -0.03 |
| TATAACACGTGGTGGA | -0.11 |
| ATGGTCACGTGACGGG | 0.21 |
| AAGGTCACGTGAGTTT | 0.2 |
| AGGGACACGTGGTCGG | -0.05 |
| TGCGACACGTGTATGT | -0.02 |
| TTAAGCACGTGCGGGT | -0.1 |
| CTTCGCACGTGATGGG | -0.02 |
| GTGAGCACGTGGGGAG | -0.21 |
| TTAGGCACGTGTTTTT | -0.02 |
